{
  "source": "the supplement of paper PMC9446081",
  "note": "Hit rate of the full screen: of about 39,000 compounds, about 220 (0.56%) showed activity. Some of the results follow.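 Also: static incubation at 37 °C against the wild-type strain, values averaged over two biological replicates.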",
  "data": [
    {"test_system": "Escherichia coli K-12 BW25113", "assay": "relative growth (OD600 normalised to plate interquartile mean) (fraction); higher = less growth inhibition, active = 0.2 or less", "conditions": "50 µM; LB; incubation time: overnight (16-24 h)", "values": [
      {"smiles": "Cc1ccccc1NC(=O)Nc1ccc(CC(=O)N(C)[C@@H](CC(C)C)C(=O)NCC[C@H](NC(=O)[C@@H]2CCCN2S(=O)(=O)c2cc(Cl)cc(Cl)c2)C(=O)O)cc1", "relative growth": "inactive: 0.988"},
      {"smiles": "COc1ccc(S(=O)(=O)Nc2ccc3c(c2)CC(=O)N([C@@H](C)CO)C[C@H](C)[C@H](CN(C)C(=O)Nc2c(C)noc2C)O3)cc1", "relative growth": "inactive: 1.02"},
      {"smiles": "COc1ccc2c3c(n(c2c1)C)[C@H](CO)N(C[C@]13CN(C1)C(=O)C)C(=O)CN1CCOCC1", "relative growth": "inactive: 0.994"},
      {"smiles": "CNC[C@H]1OCCCC[C@@H](C)Oc2ccc(NC(=O)Nc3ccc(C(F)(F)F)cc3)cc2C(=O)N([C@H](C)CO)C[C@H]1C", "relative growth": "inactive: 0.947"},
      {"smiles": "NC[C@](O)(c1cccs1)C1CC1", "relative growth": "inactive: 1.01"},
      {"smiles": "CO[C@H](CN(C)S(=O)(=O)c1cccc(Cl)c1)[C@@H](C)CN([C@H](C)CO)S(=O)(=O)c1ccc(Cl)cc1", "relative growth": "inactive: 1.03"},
      {"smiles": "C[C@@H]1CN([C@@H](C)CO)C(=O)c2cc(-c3cccc(C(=O)N(C)C)c3)cnc2O[C@H]1CN(C)C(=O)Cc1ccccn1", "relative growth": "inactive: 0.986"},
      {"smiles": "C[C@H]1CN([C@@H](C)CO)C(=O)CCCn2nncc2CO[C@H]1CN(C)S(=O)(=O)c1ccc(Oc2ccccc2)nc1", "relative growth": "inactive: 1.01"},
      {"smiles": "CCC(=O)C12CC3CC(CC(C3)C1)C2", "relative growth": "inactive: 0.981"},
      {"smiles": "C[C@@H]1CN([C@H](C)CO)C(=O)c2cc(NC(=O)NC3CCCCC3)ccc2O[C@@H](C)CCCCO[C@@H]1CN(C)Cc1ccc(C(=O)O)cc1", "relative growth": "inactive: 1.01"},
      {"smiles": "Cc1noc(C)c1S(=O)(=O)Nc1ccc2c(c1)C(=O)N([C@@H](C)CO)C[C@H](C)[C@@H](CN(C)Cc1ccccc1)OCCCC[C@H](C)O2", "relative growth": "inactive: 0.983"},
      {"smiles": "C[C@H]1CN([C@@H](C)CO)C(=O)Cc2cc(NS(C)(=O)=O)ccc2O[C@H]1CN(C)Cc1ccc(C(F)(F)F)cc1", "relative growth": "inactive: 0.971"},
      {"smiles": "C[C@H]1CN([C@@H](C)CO)C(=O)c2cccc(NC(=O)Nc3ccc(C(F)(F)F)cc3)c2O[C@@H]1CN(C)Cc1ccc(C(=O)Nc2ccccc2N)cc1", "relative growth": "inactive: 0.984"},
      {"smiles": "Cc1ccc(S(=O)(=O)Nc2ccc3c(c2)C(=O)N([C@H](C)CO)C[C@H](C)[C@H](CN(C)C(=O)Nc2cccc4ccccc24)OCCCC[C@H](C)O3)cc1", "relative growth": "inactive: 0.988"},
      {"smiles": "COc1ccc2c3c(n(c2c1)C)[C@@H](CO)N(Cc1cc(cc(c1)OC)OC)C[C@]13CCN(CC1)C(=O)Nc1cccc(c1)F", "relative growth": "inactive: 1.03"},
      {"smiles": "C[C@H](CO)N1C[C@H](C)[C@H](CN(C)C(=O)Nc2cccc(C(F)(F)F)c2)OCc2ccccc2-c2ccccc2C1=O", "relative growth": "inactive: 0.984"},
      {"smiles": "N[C@H]1CCOC2(CCCC2)C1", "relative growth": "inactive: 0.906"},
      {"smiles": "C=C1CCC2C(C)(CO)C(O)CCC2(C)C1CC=C1C(=O)OCC1O", "note": "(configuration not stated)", "relative growth": "inactive: 0.963"},
      {"smiles": "C[C@H](CO)N1C[C@H](C)[C@H](CN(C)S(C)(=O)=O)Oc2ncc(-c3cccc(C(F)(F)F)c3)cc2C1=O", "relative growth": "inactive: 1.02"},
      {"smiles": "O=c1c(O)cc([C@H]2Oc3cc(O)cc(O)c3C[C@H]2O)c2cc([C@H]3Oc4cc(O)cc(O)c4C[C@H]3O)cc(O)c(O)c1-2", "relative growth": "inactive: 0.968"},
      {"smiles": "C[C@@H]1CCCCO[C@@H](CN(C)Cc2ccc(Cl)c(Cl)c2)[C@@H](C)CN([C@H](C)CO)C(=O)c2cc(NS(=O)(=O)c3cccs3)ccc2O1", "relative growth": "inactive: 1.02"},
      {"smiles": "CC/C=C\\C/C=C\\C/C=C\\CCCCCCCC(=O)O", "relative growth": "inactive: 0.995"},
      {"smiles": "Cc1ccc(S(=O)(=O)Nc2ccc3c(c2)CC(=O)N([C@H](C)CO)C[C@H](C)[C@H](CN(C)Cc2ccc(-c4ccccc4)cc2)O3)cc1", "relative growth": "inactive: 1.02"},
      {"smiles": "CC(C)C(N)C(=O)OCCOCn1cnc2c(=O)[nH]c(N)nc21.Cl", "note": "(configuration not stated)", "relative growth": "inactive: 0.942"},
      {"smiles": "COc1ccc(NC(=O)N(C)C[C@H]2Oc3ccc(NC(=O)Nc4ccc(C(F)(F)F)cc4)cc3CC(=O)N([C@H](C)CO)C[C@@H]2C)cc1", "relative growth": "inactive: 1.01"},
      {"smiles": "C[C@@H]1CCCCO[C@@H](CN(C)S(=O)(=O)c2ccc(Cl)cc2)[C@H](C)CN([C@@H](C)CO)C(=O)c2cc(NC(=O)C3CCCCC3)ccc2O1", "relative growth": "inactive: 0.809"},
      {"smiles": "COc1cccc(S(=O)(=O)N[C@@H]2CC[C@H](CCn3cc(-c4ccccc4OC)nn3)O[C@@H]2CO)c1", "relative growth": "inactive: 1.02"},
      {"smiles": "C[C@H](CO)N1C[C@H](C)[C@@H](CN(C)S(=O)(=O)c2cccs2)Oc2ccc(NS(=O)(=O)c3ccc(F)cc3)cc2C1=O", "relative growth": "inactive: 0.979"},
      {"smiles": "C[C@H](CO)N1C[C@H](C)[C@@H](CN(C)Cc2ccc(Cl)c(Cl)c2)Oc2c(NS(=O)(=O)c3cccs3)cccc2C1=O", "relative growth": "inactive: 0.905"},
      {"smiles": "C[C@@H]1CN([C@@H](C)CO)C(=O)Cc2cc(NC(=O)Nc3ccc(C(F)(F)F)cc3)ccc2O[C@@H]1CN(C)Cc1ccc2c(c1)OCO2", "relative growth": "inactive: 1.01"},
      {"smiles": "C[C@@H]1CN([C@H](C)CO)C(=O)c2cc(NC(=O)C3CCCCC3)ccc2O[C@@H](C)CCCCO[C@H]1CN(C)C(=O)Nc1ccc2c(c1)OCO2", "relative growth": "inactive: 1"},
      {"smiles": "CC(=O)OC1CC(OC(C)=O)C2(C)C(CC(OC(C)=O)C3(C)C2CCC2(C)C(c4ccoc4)OC(=O)C4OC423)C1(C)C", "note": "(configuration not stated)", "relative growth": "inactive: 1.15"},
      {"smiles": "C[C@@H]1CN([C@@H](C)CO)C(=O)CCCn2nncc2CO[C@H]1CN(C)S(=O)(=O)c1ccc(-c2ccccc2)cc1", "relative growth": "inactive: 1.01"},
      {"smiles": "O=C(C[C@H]1C[C@H]2c3cc(NC(=O)Cc4ccncc4)ccc3O[C@H]2[C@@H](CO)O1)NCCN1CCCCC1", "relative growth": "inactive: 0.99"},
      {"smiles": "C[C@@H]1CN([C@@H](C)CO)C(=O)Cc2cc(NC(=O)Nc3ccc(C(F)(F)F)cc3)ccc2O[C@@H]1CN(C)C(=O)Nc1ccc2c(c1)OCO2", "relative growth": "inactive: 1.03"},
      {"smiles": "Cc1ccc(S(=O)(=O)Nc2ccc3c(c2)C(=O)N([C@@H](C)CO)C[C@@H](C)[C@@H](CN(C)C(=O)Nc2cccc4ccccc24)OCCCC[C@H](C)O3)cc1", "relative growth": "inactive: 1.02"},
      {"smiles": "COc1ccc(C#Cc2ccc3c(c2)O[C@H](CN(C)C(=O)c2ccccn2)[C@H](C)CN([C@@H](C)CO)S3(=O)=O)cc1", "relative growth": "inactive: 1"},
      {"smiles": "CC(C)CS(=O)(=O)N1C[C@H]2C[C@H](C(=O)N3CCOCC3)[C@@H](C1)O2", "relative growth": "inactive: 0.992"},
      {"smiles": "C[C@H](CO)N1C[C@H](C)[C@H](CN(C)Cc2ccncc2)Oc2ccc(NC(=O)Nc3cccc4ccccc34)cc2CC1=O", "relative growth": "inactive: 1.01"},
      {"smiles": "C[C@@H]1CCCCO[C@@H](CN(C)C(=O)c2ccccc2)[C@H](C)CN([C@H](C)CO)C(=O)c2cc(NS(=O)(=O)c3ccc(F)cc3)ccc2O1", "relative growth": "inactive: 1"},
      {"smiles": "C[C@@H]1CN([C@H](C)CO)C(=O)c2cc(NC(=O)CCCN(C)C)ccc2O[C@@H]1CN(C)S(=O)(=O)c1ccc(F)cc1", "relative growth": "inactive: 0.981"},
      {"smiles": "CNC(=O)c1cc(S(=O)(=O)N(C)C[C@@H]2Oc3ccc(NC(=O)Nc4ccc(F)cc4)cc3CC(=O)N([C@@H](C)CO)C[C@@H]2C)cs1", "relative growth": "inactive: 0.943"},
      {"smiles": "C[C@H](CO)N1C[C@H](C)[C@H](CN(C)C(=O)Nc2cccc(F)c2)OCCCC[C@H](C)Oc2ccc(NC(=O)C3CCCCC3)cc2C1=O", "relative growth": "inactive: 1"},
      {"smiles": "Cc1noc(C)c1NC(=O)Nc1ccc2c(c1)C(=O)N([C@H](C)CO)C[C@@H](C)[C@H](CN(C)Cc1ccc(Cl)c(Cl)c1)O2", "relative growth": "inactive: 1"},
      {"smiles": "CN1CCN(C(=O)C[C@H]2C[C@H]3c4cc(NS(=O)(=O)c5ccc(F)cc5)ccc4O[C@H]3[C@@H](CO)O2)CC1", "relative growth": "inactive: 0.939"},
      {"smiles": "Cc1noc(C)c1NC(=O)N[C@@H]1C=C[C@H](CC(=O)N2CCN(C)CC2)O[C@@H]1CO", "relative growth": "inactive: 1.01"},
      {"smiles": "Cc1ccc(S(=O)(=O)N(C)C[C@@H]2Oc3ccc(NC(=O)NC(C)C)cc3CC(=O)N([C@@H](C)CO)C[C@@H]2C)cc1", "relative growth": "inactive: 1.03"},
      {"smiles": "CCCCCCc1nc(-c2ccc(-c3ccc(Cl)c(Cl)c3)o2)cc2c1[Si](C(C)C)(C(C)C)OC2", "relative growth": "inactive: 1.07"},
      {"smiles": "C[C@H](CO)N1C[C@H](C)[C@@H](CN(C)C(=O)Nc2cccc3ccccc23)OCCCC[C@H](C)Oc2ccc(NS(=O)(=O)c3ccc(Cl)cc3)cc2C1=O", "relative growth": "inactive: 1.03"},
      {"smiles": "CC(C)NC(=O)N(C)C[C@H]1Oc2ccc(NS(=O)(=O)c3cn(C)cn3)cc2CC(=O)N([C@@H](C)CO)C[C@@H]1C", "relative growth": "inactive: 1.01"},
      {"smiles": "COc1ccc(S(=O)(=O)Nc2ccc3c(c2)C(=O)N([C@H](C)CO)C[C@H](C)[C@@H](CN(C)C(=O)Nc2ccc(F)cc2)OCCCC[C@@H](C)O3)cc1", "relative growth": "inactive: 1.05"},
      {"smiles": "C[C@@H]1CN([C@H](C)CO)C(=O)c2cc(NS(C)(=O)=O)ccc2O[C@@H]1CN(C)C(=O)Nc1ccc(F)cc1", "relative growth": "inactive: 1"},
      {"smiles": "Cc1cc(C)c2c(c1)[C@@H](N(Cc1cc(C(F)(F)F)cc(C(F)(F)F)c1)c1nnn(C)n1)CCCN2C[C@H]1CC[C@H](C(=O)O)CC1", "relative growth": "inactive: 0.913"},
      {"smiles": "Cc1noc(C)c1S(=O)(=O)Nc1ccc2c(c1)C(=O)N([C@H](C)CO)C[C@@H](C)[C@H](CN(C)Cc1ccc(C(F)(F)F)cc1)OCCCC[C@@H](C)O2", "relative growth": "inactive: 0.988"},
      {"smiles": "CN1CCN(C(=O)C[C@@H]2CC[C@@H]3[C@H](COC[C@H](O)CN3C(=O)C3CC3)O2)CC1", "relative growth": "inactive: 0.889"},
      {"smiles": "C[C@H]1CN([C@@H](C)CO)C(=O)Cc2cc(NS(=O)(=O)c3ccc(Cl)cc3)ccc2O[C@@H]1CN(C)Cc1ccc(C(=O)Nc2ccccc2N)cc1", "relative growth": "inactive: 0.994"},
      {"smiles": "COc1ccc2c3c(n(c2c1)C)[C@@H](CO)N(C[C@]13CN(Cc2ccncc2)C1)C(=O)CN1CCOCC1", "relative growth": "inactive: 1.03"}
    ]}
  ]
}
